# In the supplement of paper PMC3334620:
# Whole data set: some 33,000 sequences, median “E-score (-0.5 to 0.5)” near -0.016, cut for the highest 2% near 0.31. Some of the results follow.
# Target: Cst6 (UniProt P40535)
# Assay: PBM E-score (8-mer binding enrichment) (E-score (-0.5 to 0.5)); higher = stronger / more preferred TF binding; most listed sequences are background and not binding sites
# Conditions: protein concentration: 200 nM; construct: GST-DNA-binding domain
# Protocol: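 Universal 'all 10-mer' protein binding microarrays (Agilent AMADID 015681) probed with GST-tagged S. cerevisiae TFs (full-length or DBD) made by in vitro transcription/translation (PURExpress), about 100-200 nM. Bound TF was detected with fluorescent anti-GST. Each ungapped 8-mer (which stands for itself and its reverse complement) is scored by the PBM enrichment score (E-score), a modified Wilcoxon-Mann-Whitney statistic from -0.5 to +0.5, computed with the Universal PBM Analysis Suite. Scale: above 0.35 generally sequence-specific binding.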
row,Sequence,PBM E-score
1,CCGCTGTC,-0.179
2,AAGCCTGC,-0.118
3,ATTGACAA,-0.00121
4,TATACCGA,0.00086
5,CCAGCAAA,0.055
6,AAATTTGC,0.0737
7,AAATACTA,0.216
8,GTCTGGTA,-0.0596
9,GATGAAGC,-0.0781
10,GGCTCGAA,0.00691
11,TCTACCCA,-0.107
12,GAGGACCC,-0.341
13,ATAATCAG,0.106
14,CATGGGTA,-0.0527
15,CGTATGAC,0.443
16,AGGGCATC,-0.0843
17,CATGCGTA,0.15
18,CCAAGAAA,0.0709
19,TGCACGCA,-0.0594
20,AATACTAA,0.23
21,ATCAAAAT,0.101
22,GGTAGGAA,-0.199
23,AACGTTCA,-0.0579
24,TAACCGAA,-0.0904
25,ATCTGATC,0.0364

row,Sequence,PBM E-score
1,GGTGAATA,0.0601
2,AAACAGAC,0.017
3,ACGGACTA,-0.0648
4,CCGTCGCC,-0.0855
5,CGCTTAAG,-0.0826
6,CCTTGTAC,-0.0491
7,CCCCATAC,-0.126
8,AGCTCAGG,0.163
9,AGTTTTGG,0.029
10,GTGACCTA,0.192
11,AAATCCGA,0.0442
12,CGTGGTAG,-0.0502
13,CGCTGATC,-0.00594
14,CCAAGGTC,-0.189
15,GCGGTCTA,-0.0855
16,AGCAATTG,0.158
17,ACGCAGCT,-0.00659
18,GGAACCAC,-0.0995
19,CATCCAGG,-0.216
20,ATATACTC,0.0668
21,CACTATAA,0.0085
22,AGCGTATA,0.0915
23,AAGCCGGC,-0.187
24,GCTTACAA,0.0326
25,AGCCTCGA,-0.128

row,Sequence,PBM E-score
1,AAAGGGAT,0.032
2,AGAAAGCC,0.119
3,CTCTCCTC,-0.386
4,ACCCGCGG,0.0671
5,CGTTCTAC,-0.153
6,CAAGAAAA,0.188
7,TACCCGCA,0.11
8,CAATGGAG,-0.139
9,AGTCACCG,0.0644
10,AGAAACCC,-0.0201
11,TAATGTAA,0.245
12,AGCAGCCA,-0.0967
13,GACTTGAA,-0.171
14,CCCTGAAG,-0.156
15,CAACTACA,0.105
16,CCCTGGGA,-0.296
17,GCCAGCCA,-0.197
18,ATGTACCA,0.00974
19,CGGTGGAC,-0.248
20,GACATGGA,0.00273
21,CCTGGAGA,-0.132
22,GATGTGAC,0.09
23,CACTCGAG,-0.159
24,GATCGATC,0.103
25,CCTCCTCC,-0.339

row,Sequence,PBM E-score
1,GCAAGTCC,-0.277
2,AACATGCC,0.0181
3,CCGCTACA,-0.206
4,ATTACCAA,0.167
5,AAGGGCCG,-0.0634
6,GGTACCCA,-0.187
7,CTCGGGCA,-0.0998
8,CTTAGTGA,0.106
9,AGACCATA,0.106
10,CGAGCCGA,-0.122
11,ATGACTCC,0.0246
12,CAACAGAA,0.0546
13,ATTAGAAG,0.0209
14,AGGTTGCA,0.0922
15,ATCCGAGG,-0.066
16,GATGGTTA,0.0793
17,CAGACAAG,-0.14
18,AAATCGAA,0.124
19,CAGGCCAG,-0.17
20,CCAGGAGG,-0.294
21,ATGCGAAG,0.0305
22,CCAAAATA,0.163
23,AATCGATG,0.238
24,AAAGGTAC,-0.104
25,TCCCCCGA,-0.326

row,Sequence,PBM E-score
1,ATACTGAG,0.164
2,CATGTCAC,0.36
3,AAATCATG,0.2
4,CCGTAAAG,0.00566
5,GGCGCCCA,0.0785
6,CTGGTGGA,-0.263
7,CAAAGAGC,-0.0802
8,GGAGCCCC,-0.32
9,CTTTTCAA,0.158
10,ATTCAGCA,0.00552
11,CGCCGAGC,0.0842
12,CCTTGTGC,-0.322
13,CGTAGACA,-0.0846
14,TGCCCCAA,-0.059
15,GAGGTTAC,-0.00533
16,GAAAATAC,0.0815
17,AACGAATG,0.113
18,CAGTATAC,0.154
19,CAAATACG,0.0811
20,CGGGGTTC,-0.289
21,GGGGGAAA,-0.247
22,CTAAATGC,0.065
23,AAAGGGAA,-0.0935
24,AGAAACTC,0.0705
25,CCGGTCAC,-0.079

row,Sequence,PBM E-score
1,CTCAACTC,-0.0659
2,AACGATCT,-0.0808
3,GCTACTCA,0.00083
4,ATACAGGA,-0.0267
5,AGCGCACT,-0.303
6,ACCATCGG,-0.172
7,ACCGCGTA,-0.0111
8,CCAACGGA,-0.112
9,GCGTACTA,-0.126
10,ATGAGCAA,0.156
11,AAGACGAT,0.198
12,AGCGCGCC,-0.00777
13,AGGACAGC,-0.144
14,GACACCCC,-0.247
15,CACTAACC,-0.049
16,ACAAGTGA,0.0779
17,CGAAGTGA,0.135
18,ACGTTCGG,-0.172
19,GCACGAGC,-0.099
20,GCATAGAC,-0.165
21,AGAAACAT,0.135
22,AGGGACCA,-0.245
23,GCTCCGCC,-0.185
24,AGTCTACC,-0.307
25,ACTGTTAG,-0.0504

row,Sequence,PBM E-score
1,CTTCGCTC,-0.00522
2,CTGCCGTC,0.0959
3,GAAATCCA,0.106
4,GGTTAATA,0.115
5,CAGCTGGG,-0.33
6,CTAACGAA,0.0703
7,GGGTGAAC,-0.0245
8,CTGTTCGA,-0.178
9,AAGTGATT,0.167
10,ATTCCTCC,-0.175
11,CTGTTGCC,-0.21
12,GACTTTTA,0.0138
13,ATAGACCG,-0.135
14,ACGATTAG,0.146
15,GTGTTTAA,0.086
16,GCAAAAGA,0.0271
17,ATAGCCCG,-0.168
18,ATACGCGG,-0.0099
19,AGGGACTG,-0.286
20,ACAACCCC,-0.169
21,GATGGTAC,-0.00144
22,ATCAGATC,-0.0398
